According to the RNAGym collection of RNA variant scans (doi:10.1073/pnas.2313332121):
This sample is rich in variants without activity.

B1: TPR 5TU (parent)
chain: GGAUCUUCUCGAUCUAACAAAAAAGACAAAUCUGCCACAAAGCUUGAGAGCAUCUUCGGAUGCAGAGGCGGCAGCCUUCGGUGGCGCGAUAGCGCCAACGUUCUCAACUAUGACACGCAAAACGCGUGCUCCGUUGAAUGGAGUUUAUCAUG

Variants of: B1
Experiment: polymerase ribozyme fitness, log enrichment relative to wild type (log ratio); higher = more active; in vitro selection for triplet polymerase activity
How it was run: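 Both subunits of a heterodimeric triplet polymerase ribozyme were given their own mutant library, built by PCR and transcribed. Each library was annealed with a biotinylated primer, the partner subunit and triplets, incubated frozen at −7 °C, and its extended constructs gel-excised, captured on streptavidin beads and amplified by RT-PCR, all in one round done in triplicate. Fitness is the logarithm of genotype enrichment relative to wild-type enrichment, with replicates averaged by inverse-variance weighting. That logarithm is base 2, and Illumina-sequenced genotypes needed ≥10 input reads and ≥1 read per output.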

| Variant | polymerase ribozyme fitness (log ratio) |
| --- | --- |
| A28G C35U A97G C103A C105U U134C A150U G152A | ≤ -4.2 |
| C27G C36A A49U G83U U111C | ≤ -4.2 |
| C27A U33C C85A A106G U144A U151C | ≤ -4.2 |
| C27U C54U G83U | -2.12 |
| C27G G92C C99U A107C U134A | ≤ -4.2 |
| A28C A41C C95A G128A G140C G143A | ≤ -4.2 |
| C27A C72U G92C A98G U104G U109C A115C | ≤ -4.2 |
| A28G G65C | ≤ -4.2 |
| C27U C85A | -2.04 |
| A28C U56A C96A U102G A110U | ≤ -4.2 |
| C27U C32U A47U C85G U135G G152A | ≤ -4.2 |
| C27U A37C G59U U61A C63U A64C G92U | ≤ -4.2 |
| C27U C54G C63A C85A C118U | ≤ -4.2 |
| C27G A52C U82A | ≤ -4.2 |
| C27A A37U C63G G68A | ≤ -4.2 |
| C27G A150C | ≤ -4.2 |
| A28C A98U | ≤ -4.2 |
| A26U G62U A122G C132U | ≤ -4.2 |
| C27G U31G C63A A89G U145C | ≤ -4.2 |
| A28G C75A U78A G94C G141A U146G | ≤ -4.2 |
| A28C G50U C85U G92A C95U G143A U144A | ≤ -4.2 |

| Variant | polymerase ribozyme fitness (log ratio) |
| --- | --- |
| C27G A37U A40C A64G G81A C95G A138C | -3.88 |
| A28U C54A G83A A121U | ≤ -4.2 |
| A28U A29G G88U G128A C131A | ≤ -4.2 |
| A28C C35A A39U G84A C103G U145A | ≤ -4.2 |
| C27U A29C G58C C85A U145A | ≤ -4.2 |
| C27U C57A C95U | -2.1 |
| A28G C93U G124U C149G | ≤ -4.2 |
| A26U G68C G86U C103G A115C | ≤ -4.2 |
| A26U G50A G92C | ≤ -4.2 |
| C27G A30U A49U C87A U104C A115U | ≤ -4.2 |
| A26U C38A A106U A107C A110G A120G | ≤ -4.2 |
| C27A A37U A39G A40G U78G C79U C87G C103U | ≤ -4.2 |
| A28U C57G C85G G92A A115C | ≤ -4.2 |
| A28C A52U C87G A110U A138G | ≤ -4.2 |
| A28G C54U U55A G67U G80C A121G A147G | ≤ -4.2 |
| A28C G117U | ≤ -4.2 |
| A28G C32G G84A C85G A115U G141C | ≤ -4.2 |
| C27U A29U A52G C76A G92A C105U U151A | ≤ -4.2 |
| A28G U53A G84A U111C | ≤ -4.2 |
| C27U U53A A113C G117U U139G | ≤ -4.2 |
| C27G C36G G74A U77C C96A A119G U127G | ≤ -4.2 |

| Variant | polymerase ribozyme fitness (log ratio) |
| --- | --- |
| A28U C36A G50C U55A A66U C95G U109C A110C U127G | ≤ -4.2 |
| A26U G50C C85G C95A C96U G140U | ≤ -4.2 |
| A28G A49G G50A C87G | ≤ -4.2 |
| A28G C116U | -3.63 |
| A28U C54A C69A G84A A97U U151G | ≤ -4.2 |
| C27G C95U C116A A120U | ≤ -4.2 |
| C27G G92C A142U | ≤ -4.2 |
| C27G A29U A41C A49C C57U U109C A113U | ≤ -4.2 |
| C27A U31G C63G C95U C103A U144A | ≤ -4.2 |
| A28C A49C | ≤ -4.2 |
| A28U C72U | ≤ -4.2 |
| A26U U44G A52G C57A C75U | ≤ -4.2 |
| A28C U53A U109G G152A | ≤ -4.2 |
| A28G C79G | ≤ -4.2 |
| C27U A73C C95G | ≤ -4.2 |
| C27A U61A G86A | ≤ -4.2 |
| A28C C57U G59A U78G G86A A115U | ≤ -4.2 |
| A28U A39U A47U C79G C87U U135G G140C | ≤ -4.2 |
| C27U U55A U56A | -2.25 |
| A26U U33G C38U C76U U78G G84C G86A A107G U127C | ≤ -4.2 |
| C27U C36G C43A C57A U78G A98U A120G G133U | ≤ -4.2 |

| Variant | polymerase ribozyme fitness (log ratio) |
| --- | --- |
| A28U A66C C72U A91C C114U | ≤ -4.2 |
| C27U G34A A66G A113C A121C | ≤ -4.2 |
| A28C U53A G58C A91G U146C | ≤ -4.2 |
| A28G A29U C87G C96A | ≤ -4.2 |
| C27U C75A G81A G92A U135A | ≤ -4.2 |
| A28G G88U A89C C116U | ≤ -4.2 |
| A28C C32G G46C C51U A122C | ≤ -4.2 |
| C27A C51U A52G A73U U90C C95U | ≤ -4.2 |
| C27G G48C A66G U139A G140U | ≤ -4.2 |
| C27U U61A C85U G141U | ≤ -4.2 |
| C27U G62A A97U A98C | -3.33 |
| C27G C54U C76G U144G | ≤ -4.2 |
| A28C C54G C116U | ≤ -4.2 |
| C27A U61A G88C G92A G117U U139G | ≤ -4.2 |
| C27G A29C A49U A66G C75A C93A | ≤ -4.2 |
| A28C U61A U134A U148C | ≤ -4.2 |
| A26U G48A G70U C125U | ≤ -4.2 |
| C27G U61A C95U | ≤ -4.2 |
| C27U C75G U78A C85U U148G | ≤ -4.2 |
| A26U U33C A47C A106G | ≤ -4.2 |
